Data from patent US20230250147A1, “GLP-1R AGONISTIC PEPTIDES WITH REDUCED ACTIVITY” (SANOFI, priority 2020, published 2023).

B1: 50 (protein)
chain: HGEGTFTSDLSKQLEEEAVQLFIEWLLATGPSSGKPPPKGGGGGGGSGGGGSGGGGSA[… human IgG4 Fc with changes …]GGGSGSAHPIPDSSPLLQFGGQVRQRYLYTDDACQTEAHLEIREDGTVGGAADQSPESLLQLKALKPGVIQILGVKTSRFLCQRPDGALYGSLHFDPEACSFRELLLEDGYNVYQSEAHGLPLHLPGCKSPHRDPAPRGPARFLPLPGLPPAPPEPPGILAPQPPDVGSSDPLSMVYPSQGRSPSYAS
modifications: Fusion Protein
B2: 51 (protein)
chain: HGEGTFTSDLSKQLEEEAVQLFIEWLLATGPSSGKPPPEGGGGGGGSGGGGSGGGGSA[… human IgG4 Fc with changes …]GGGSGSAHPIPDSSPLLQFGGQVRQRYLYTDDACQTEAHLEIREDGTVGGAADQSPESLLQLKALKPGVIQILGVKTSRFLCQRPDGALYGSLHFDPEACSFRELLLEDGYNVYQSEAHGLPLHLPGCKSPHRDPAPRGPARFLPLPGLPPAPPEPPGILAPQPPDVGSSDPLSMVYPSQGRSPSYAS
modifications: Fusion Protein
B3: 52 (protein)
chain: HGEGTFTSDLSKQLEEEAVQLFIEWLLATGPSSGEPPPKGGGGGGGSGGGGSGGGGSA[… human IgG4 Fc with changes …]GGGSGSAHPIPDSSPLLQFGGQVRQRYLYTDDACQTEAHLEIREDGTVGGAADQSPESLLQLKALKPGVIQILGVKTSRFLCQRPDGALYGSLHFDPEACSFRELLLEDGYNVYQSEAHGLPLHLPGCKSPHRDPAPRGPARFLPLPGLPPAPPEPPGILAPQPPDVGSSDPLSMVYPSQGRSPSYAS
modifications: Fusion Protein
B4: 53 (protein)
chain: HGEGTFTSDKSKQLDEQRAKEFIEWLKAGGHPSGKPPPKGGGGGGGSGGGGSGGGGSA[… human IgG4 Fc with changes …]GGGSGSAHPIPDSSPLLQFGGQVRQRYLYTDDACQTEAHLEIREDGTVGGAADQSPESLLQLKALKPGVIQILGVKTSRFLCQRPDGALYGSLHFDPEACSFRELLLEDGYNVYQSEAHGLPLHLPGCKSPHRDPAPRGPARFLPLPGLPPAPPEPPGILAPQPPDVGSSDPLSMVGSQGRSPSYAS
modifications: Fusion Protein
B5: 54 (protein)
chain: GHGEGTFTSDKSKQLEEEAVRLFIEWLKAGGHPSGKPPPKGGGGGGGSGGGGSGGGGSA[… human IgG4 Fc with changes …]GGGSGSAHPIPDSSPLLQFGGQVRQRYLYTDDACQTEAHLEIREDGTVGGAADQSPESLLQLKALKPGVIQILGVKTSRFLCQRPDGALYGSLHFDPEACSFRELLLEDGYNVYQSEAHGLPLHLPGCKSPHRDPAPRGPARFLPLPGLPPAPPEPPGILAPQPPDVGSSDPLSMVGSQGRSPSYAS
modifications: Fusion Protein
B6: 55 (protein)
chain: GHGEGTFTSDKSIQLEEEAVRLFIEWLLAGGHPSGKPPPKGGGGGGGSGGGGSGGGGSA[… human IgG4 Fc with changes …]GGGSGSAHPIPDSSPLLQFGGQVRQRYLYTDDACQTEAHLEIREDGTVGGAADQSPESLLQLKALKPGVIQILGVKTSRFLCQRPDGALYGSLHFDPEACSFRELLLEDGYNVYQSEAHGLPLHLPGCKSPHRDPAPRGPARFLPLPGLPPAPPEPPGILAPQPPDVGSSDPLSMVGSQGRSPSYAS
modifications: Fusion Protein
B7: 56 (protein)
chain: AHGEGTFTSDKSIQLEKEAVRLFIEWLLAGGHPSGKPPPKGGGGGGGSGGGGSGGGGSA[… human IgG4 Fc with changes …]GGGSGSAHPIPDSSPLLQFGGQVRQRYLYTDDACQTEAHLEIREDGTVGGAADQSPESLLQLKALKPGVIQILGVKTSRFLCQRPDGALYGSLHFDPEACSFRELLLEDGYNVYQSEAHGLPLHLPGCKSPHRDPAPRGPARFLPLPGLPPAPPEPPGILAPQPPDVGSSDPLSMVGSQGRSPSYAS
modifications: Fusion Protein
B8: 57 (protein)
chain: YGEGTFTSDKSQLLEKRLAHLFIEWLIAGGHSSGKPPPKGGGGGGGSGGGGSGGGGSA[… human IgG4 Fc with changes …]GGGSGSAHPIPDSSPLLQFGGQVRQRYLYTDDACQTEAHLEIREDGTVGGAADQSPESLLQLKALKPGVIQILGVKTSRFLCQRPDGALYGSLHFDPEACSFRELLLEDGYNVYQSEAHGLPLHLPGCKSPHRDPAPRGPARFLPLPGLPPAPPEPPGILAPQPPDVGSSDPLSMVGSQGRSPSYAS
modifications: Fusion Protein
B9: 58 (protein)
chain: YGEGTFTSDKSKLLEKRLVRLFIEWLIAGGHSSGKPPPKGGGGGGGSGGGGSGGGGSA[… human IgG4 Fc with changes …]GGGSGSAHPIPDSSPLLQFGGQVRQRYLYTDDACQTEAHLEIREDGTVGGAADQSPESLLQLKALKPGVIQILGVKTSRFLCQRPDGALYGSLHFDPEACSFRELLLEDGYNVYQSEAHGLPLHLPGCKSPHRDPAPRGPARFLPLPGLPPAPPEPPGILAPQPPDVGSSDPLSMVGSQGRSPSYAS
modifications: Fusion Protein
B10: 59 (protein)
chain: YGEGTFTSDKSKLLEKRLAHLFIEWLIAGGHSSGKPPPKGGGGGGGSGGGGSGGGGSA[… human IgG4 Fc with changes …]GGGSGSAHPIPDSSPLLQFGGQVRQRYLYTDDACQTEAHLEIREDGTVGGAADQSPESLLQLKALKPGVIQILGVKTSRFLCQRPDGALYGSLHFDPEACSFRELLLEDGYNVYQSEAHGLPLHLPGCKSPHRDPAPRGPARFLPLPGLPPAPPEPPGILAPQPPDVGSSDPLSMVGSQGRSPSYAS
modifications: Fusion Protein
B11: 60 (protein)
chain: YGEGTFTSDKSKQLEKRLVRLFIEWLIAGGHSSGKPPPKGGGGGGGSGGGGSGGGGSA[… human IgG4 Fc with changes …]GGGSGSAHPIPDSSPLLQFGGQVRQRYLYTDDACQTEAHLEIREDGTVGGAADQSPESLLQLKALKPGVIQILGVKTSRFLCQRPDGALYGSLHFDPEACSFRELLLEDGYNVYQSEAHGLPLHLPGCKSPHRDPAPRGPARFLPLPGLPPAPPEPPGILAPQPPDVGSSDPLSMVGSQGRSPSYAS
modifications: Fusion Protein

biological target: T1, Monkey GLP-1R (Macaca fascicularis, UniProt F8V479); test: HTRF cAMP assay in HEK-293 cells, monkey GLP-1R; format: cell-based
T1 construct: expressed in transfected cells; host or cells: HEK-293
T1 sequence (F8V479 24-463): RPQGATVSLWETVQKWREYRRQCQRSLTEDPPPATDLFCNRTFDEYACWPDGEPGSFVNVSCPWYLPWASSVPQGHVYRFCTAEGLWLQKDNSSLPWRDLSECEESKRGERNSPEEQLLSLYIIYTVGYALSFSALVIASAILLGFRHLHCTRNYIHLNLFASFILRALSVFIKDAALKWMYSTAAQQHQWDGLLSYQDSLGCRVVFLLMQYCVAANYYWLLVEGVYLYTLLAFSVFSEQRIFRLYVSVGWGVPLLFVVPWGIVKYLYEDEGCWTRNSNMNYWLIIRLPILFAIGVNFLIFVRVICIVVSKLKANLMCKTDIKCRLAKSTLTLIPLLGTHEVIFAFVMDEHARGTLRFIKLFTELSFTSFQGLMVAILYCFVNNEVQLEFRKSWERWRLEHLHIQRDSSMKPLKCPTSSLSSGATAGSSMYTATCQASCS
Method: Recombinant HEK-293 cells were grown in T175 culture flasks placed at 37° C. to near confluence in medium (DMEM with 10% FBS) and collected in 2 mL vials in cell culture medium containing 10% DMSO in concentrations of 1-5×10^7 cells/mL. Each vial contained 1.8 mL cell suspension. The vials were slowly frozen to −80° C. in an isopropanol chamber, and then transferred to liquid nitrogen for long term storage.
Prior to their use, frozen cells were thawed quickly at 37° C., washed with 20 mL cell buffer (1×HBSS; 20 mM HEPES, 0.1% BSA) and centrifuged for 5 minutes at 900 rpm. Cells were resuspended in assay buffer (cell buffer plus 2 mM IBMX) and adjusted to a cell density of 1×10^6 cells/mL. For measurement, 5 μL cell suspension (final 5×10^3 cells/well) and 5 μL of test compound were added to a well of a 384-well plate, followed by incubation for 30 minutes at room temperature. […] The cAMP content of cells was determined using a kit from Cisbio Corp. (cat. no. 62AM4PEC) based on Homogenous Time Resolved Fluorescence (HTRF).

Row | Molecule | EC50 [nM]
1 | B1 | 0.0382
2 | B2 | 0.0511
3 | B3 | 0.046
4 | B4 | 0.025
5 | B5 | 0.0974
6 | B6 | 0.157
7 | B7 | 0.0115
8 | B8 | 0.0157
9 | B9 | 0.00576
10 | B10 | 0.0103
11 | B11 | 0.013

biological target: T2, Mouse GLP-1R (Mus musculus, UniProt O35659); test: HTRF cAMP assay in HEK-293 cells, mouse GLP-1R; format: cell-based
T2 construct: expressed in transfected cells; host or cells: HEK-293
T2 sequence (O35659 22-463): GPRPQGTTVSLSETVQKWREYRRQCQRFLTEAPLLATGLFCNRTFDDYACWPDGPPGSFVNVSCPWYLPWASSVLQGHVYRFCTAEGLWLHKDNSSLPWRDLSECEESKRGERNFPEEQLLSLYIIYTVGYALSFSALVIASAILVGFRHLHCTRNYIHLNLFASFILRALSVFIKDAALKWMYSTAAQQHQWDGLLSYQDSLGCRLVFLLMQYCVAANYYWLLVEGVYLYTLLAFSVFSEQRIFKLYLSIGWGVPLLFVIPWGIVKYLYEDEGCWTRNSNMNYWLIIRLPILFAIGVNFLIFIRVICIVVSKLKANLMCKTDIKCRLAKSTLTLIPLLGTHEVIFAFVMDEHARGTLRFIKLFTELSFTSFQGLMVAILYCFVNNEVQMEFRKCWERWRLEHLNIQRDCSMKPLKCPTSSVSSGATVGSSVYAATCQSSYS

Row | Molecule | EC50 [nM]
12 | B1 | 0.00787
13 | B2 | 0.00758
14 | B3 | 0.00704
15 | B4 | 0.128
16 | B5 | 0.119
17 | B6 | 0.596
18 | B7 | 0.0667
19 | B8 | 0.0193
20 | B9 | 0.00719
21 | B10 | 0.0135
22 | B11 | 0.0117

biological target: T3, Human GLP-1R (Homo sapiens, UniProt P43220); test: HTRF cAMP assay in HEK-293 cells, human GLP-1R; format: cell-based
T3 construct: expressed in transfected cells; host or cells: HEK-293
T3 sequence (P43220 24-463): as the sequence (F8V479 24-463) above, with N112S, S120F, G202S, V205L, F237L, R241W, V249I counted along it

Row | Molecule | EC50 [nM]
23 | B1 | 0.0205
24 | B2 | 0.0268
25 | B3 | 0.0256
26 | B4 | 0.0284
27 | B5 | 0.107
28 | B6 | 0.261
29 | B7 | 0.015
30 | B8 | 0.0211
31 | B9 | 0.00938
32 | B10 | 0.0136
33 | B11 | 0.0225
